The other results are listed elsewhere or left out.

B1: PhoQ; a variant is named by its letters at X, in order, P23837 (parent)
chain: MKKLLRLFFPLSLRVRFLLATAAVVLVLSLAYGMVALIGYSVSFDKTTFRLLRGESNLFYTLAKWENNKLHVELPENIDKQSPTMTLIYDENGQLLWAQRDVPWLMKMIQPDWLKSNGFHEIEADVNDTSLLLSGDHSIQQQLQEVREDDDDAEMTHSVAVNVYPATSRMPKLTIVVVDTIPVELKSSYMVWSWFIYVLSANLLLVIPLLWVAAWWSLRPIEALAKEVRELEEHNRELLNPATTRELTSLVRNLNRLLKSERERYDKYRTTLTDLTHSLKTPLXXLQXXLRSLRSEKMSVSDAEPVMLEQISRISQQIGYYLHRASMRGGTLLSRELHPVAPLLDNLTSALNKVYQRKGVNISLDISPEISFVGEQNDFVEVMGNVLDNACKYCLEFVEISARQTDEHLYIVVEDDGPGIPLSKREVIFDRGQRVDTLRPGQGVGLAVAREITEQYEGKIVAGESMLGGARMEVIFGRQHSAPKDE

Variants of B1 are the subject of the assay. Kind of assay: enrichment ratio after two sorts for PhoP signalling (ratio (wild type AVST 3.29)); higher = more functional. Conditions: with PhoP (E. coli).
Take MRCA: the enrichment ratio is ≤ 0.25.
The figure for SCMW is 6.03.
Next, YDWI: ≤ 0.25; CHHL: ≤ 0.25; KHQN: ≤ 0.25.
With CPSN, the enrichment ratio is ≤ 0.25.
Next, HYHD: ≤ 0.25; DWPH: ≤ 0.25; HWTC: ≤ 0.25.
Next, FMSR: ≤ 0.25; KYQH: ≤ 0.25; LCPQ: ≤ 0.25.
The figure for GWYD is ≤ 0.25.
As to QIGV, the enrichment ratio is ≤ 0.25.
The figure for MVHP is 0.338; for AYYT it is ≤ 0.25.
For NVLV, the enrichment ratio is ≤ 0.25.
The figure for EEAR is ≤ 0.25; for FGFW it is ≤ 0.25.
The figure for YYCE is ≤ 0.25; for SAIM it is 11.6.
The figure for FMDL is ≤ 0.25; for DITR it is ≤ 0.25; for ISTY it is ≤ 0.25.
For the variant VFMP, the enrichment ratio is ≤ 0.25.
Next, NIAN: ≤ 0.25.
Next, IMCQ: ≤ 0.25.
Regarding ETFE, the enrichment ratio was ≤ 0.25.
Next, PDYS: ≤ 0.25; FYDW: ≤ 0.25; TYWQ: ≤ 0.25.
For the variant RNDN, the enrichment ratio is ≤ 0.25.
The figure for FMFF is ≤ 0.25; for VDAE it is ≤ 0.25.
The figure for VTRQ is ≤ 0.25; for RNSW it is ≤ 0.25.
The figure for HFEA is ≤ 0.25.
With PFMC, the enrichment ratio is ≤ 0.25.
As for TPNG, the enrichment ratio was ≤ 0.25.
Regarding MGGI, the enrichment ratio is 2.78.
Next, NKVW: ≤ 0.25; KAWC: ≤ 0.25; LNDC: ≤ 0.25.
For the variant KCLT, the enrichment ratio was ≤ 0.25.
Next, WVIC: ≤ 0.25.
Turning to FRFD, the enrichment ratio is ≤ 0.25.
As to AKDC, the enrichment ratio was ≤ 0.25.
As to YQRW, the enrichment ratio was ≤ 0.25.
The figure for PTHN is ≤ 0.25; for QHAY it is ≤ 0.25.
The figure for FRLS is ≤ 0.25; for RYVD it is ≤ 0.25.
The figure for IDMI is ≤ 0.25; for IIIV it is ≤ 0.25; for MKWI it is ≤ 0.25.
With SENT, the enrichment ratio stood at 2.04.
Next, RELS: 0.575; VPVV: ≤ 0.25.
Next, FYCH: ≤ 0.25.
Next, RLAK: ≤ 0.25; RPKV: ≤ 0.25.
For the variant YYVR, the enrichment ratio is ≤ 0.25.
The figure for IYYY is ≤ 0.25.
In the case of ECTS, the enrichment ratio was ≤ 0.25.
Next, FWLR: ≤ 0.25.
The figure for YNIV is ≤ 0.25.
The figure for STNK is ≤ 0.25; for VLRT it is ≤ 0.25; for NFTH it is ≤ 0.25.
Regarding DKSL, the enrichment ratio is ≤ 0.25.
Next, DGIP: ≤ 0.25.
Next, AMIG: 3.62.
Next, SYAN: ≤ 0.25.
As for AQLM, the enrichment ratio was determined as 19.4.
Next, WQDG: ≤ 0.25; RTWM: ≤ 0.25.
Next, LSSF: ≤ 0.25; KHAW: ≤ 0.25; GSCV: 16.6.
For the variant HSTE, the enrichment ratio is ≤ 0.25.
On to FFIP, for which the enrichment ratio is ≤ 0.25.
For the variant GPLY, the enrichment ratio is ≤ 0.25.
Next, YMAF: ≤ 0.25.
Next, VFTH: ≤ 0.25; KNFM: ≤ 0.25; IDHC: ≤ 0.25.
With MGLN, the enrichment ratio was ≤ 0.25.
The figure for GKAF is ≤ 0.25.
Next, RFEF: ≤ 0.25.
Next, AIRI: ≤ 0.25.
In the case of VWGW, the enrichment ratio is ≤ 0.25.
Next, MMFF: ≤ 0.25.
The figure for SHTL is 2.08.
The figure for SDQA is ≤ 0.25; for MALV it is 5.46.
As to QSWY, the enrichment ratio was 7.32.
The figure for FVSI is ≤ 0.25.
The figure for VGEH is ≤ 0.25; for AATI it is 4.81.
Next, YCLW: ≤ 0.25; FVWY: ≤ 0.25; GFNH: ≤ 0.25.
Turning to QRHY, the enrichment ratio was ≤ 0.25.
Regarding VLDV, the enrichment ratio was ≤ 0.25.
Next, HQAM: ≤ 0.25; LWVL: ≤ 0.25; MNDL: ≤ 0.25.
The figure for GYQK is ≤ 0.25.
Next, PIHG: ≤ 0.25; VHHC: ≤ 0.25.
Turning to DSFW, the enrichment ratio is ≤ 0.25.
LSTC: the enrichment ratio was ≤ 0.25.
Next, FQMT: ≤ 0.25; FEII: ≤ 0.25; WFPC: ≤ 0.25.
The figure for AYLM is ≤ 0.25; for ADFC it is ≤ 0.25; for AIQA it is ≤ 0.25.
Next, PKEV: ≤ 0.25; IFNG: ≤ 0.25; NMTQ: ≤ 0.25.
On to THMC, for which the enrichment ratio came to 8.07.
The figure for QSSY is 3.21; for GIWG it is ≤ 0.25; for DLQD it is ≤ 0.25.
The figure for QETT is ≤ 0.25.
Next, INRT: ≤ 0.25; WDRM: ≤ 0.25.
Regarding AFRE, the enrichment ratio was ≤ 0.25.
Next, RVII: ≤ 0.25; EHHM: ≤ 0.25.
The figure for ETIM is ≤ 0.25; for PYFM it is ≤ 0.25.
The figure for DAPK is ≤ 0.25; for HDLR it is ≤ 0.25.
For the variant VSPN, the enrichment ratio is ≤ 0.25.
Next, SKFT: ≤ 0.25; YMCI: ≤ 0.25.
Next, DITT: ≤ 0.25; ETSA: ≤ 0.25; EGAL: ≤ 0.25.
Next, NAQH: ≤ 0.25; RHCR: ≤ 0.25; FCWS: ≤ 0.25.
Take TWYQ: the enrichment ratio was ≤ 0.25.
For the variant LDDD, the enrichment ratio was ≤ 0.25.
Next, NSFK: ≤ 0.25; LTTY: ≤ 0.25; WESM: ≤ 0.25.
Turning to MELV, the enrichment ratio worked out at 18.1.
Next, WHHE: ≤ 0.25; NSLK: ≤ 0.25.
As for NKVY, the enrichment ratio was ≤ 0.25.

Source of the values: a collection of fitness landscapes (doi:10.1126/science.1257360).
